Data on 57 sequences can be found in the supplement of paper PMC11417369.

± gives the standard deviation of the averaged measurements. The list shows a part of the results.

For the experiment, the system named is PfAP2-LT AP2 domain (GST-tagged). In words: gcPBM binding intensity (ln(normalized median fluorescence intensity)); higher = stronger DNA binding. An outline of the steps: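 The highest Masliner-normalised natural-log median intensity across replicate spots of either probe orientation is reported as binding intensity. GST-tagged P. falciparum DNA-binding domains expressed in E. coli were applied for 1 h to an Agilent 4 × 180k array of primer-extended double-stranded 36-bp intergenic genomic probes plus negative controls, and bound protein was detected with Alexa488 anti-GST antibody and scanned at 488 nm.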
On to “TTTGTTTTTATTTACACATGCAAAAAAAAAAAAAAA [TGCATGCA_site655]”, for which the “gcPBM binding intensity (ln)” value came out at 8.34 ± 0.3. Take “TTATAATAGTTAATATGTACATATTTAATAAATAAT [XGTACX_site3183]”: the “gcPBM binding intensity (ln)” value was 8.53 ± 0.35. Regarding “TACAAAATACAAAAATGTACATAAAAATTTATAAAA [XGTACX_site6861]”, the “gcPBM binding intensity (ln)” value is 8.82 ± 0.49.

Take “TACAGATACGGACACACACACACACCCAGACAAAAA [CACACA_site4432]”: the “gcPBM binding intensity (ln)” value stood at 10.2 ± 0.46. “ATATTAAAATATAATCGTACAATTAAATTTTTTTTT [XGTACX_site2739]”: the “gcPBM binding intensity (ln)” value came to 8.33 ± 0.49. On to “ATATAGAATATATTAACATGCAATAAGTAAAGGGGG [TGCATGCA_site1022]”, for which the “gcPBM binding intensity (ln)” value came to 9.67 ± 0.13. The figure for “CACTTCATAAAAATTGCACACATATAATAATGTACA [CACACA_site8692]” is 8.98 ± 0.33; for “ACAATGAAATATTCATGTACATATAAATAATAGTGT [XGTACX_site3762]” it is 8.98 ± 0.38; for “TCATATAATCAAATATGTACATATTTTCAATTGAAT [XGTACX_site6831]” it is 8.75 ± 0.38. As for “ATATAATTTGATGGTTAACACACATATATATTATAT [CACACA_site8775]”, the “gcPBM binding intensity (ln)” value was 9.08 ± 0.33.

Turning to “TTATTTATTTTTTATACACACAATTATCTTTTTAAG [CACACA_site6162]”, the “gcPBM binding intensity (ln)” value is 8.81 ± 0.51. To “ATATTTATTTAATGAACACACGATATATTATTTTAT [CACACA_site1602]” belongs 8.73 ± 0.34; to “TAAAAACATTTAAATTGTACGGAAATAAAAATTTTT [XGTACX_site8225]”, 8.45 ± 0.42; to TAAATCATTTATTAAGTGCAATATTCTTTTTGAGAT, 8.44 ± 0.38.

Turning to “TGTTTTCCCTTTAGTGTGCACGTATTTCTATTAACA [GTGCAC_site9847]”, the “gcPBM binding intensity (ln)” value came to 9.17 ± 0.4. The figure for “ATATAAATATTAAATACACACATTTTTGATTAGGTT [CACACA_site7461]” is 8.9 ± 0.4; for “AAAATGATAATACCAAGTACACATATGAAAAATACA [XGTACX_site6763]” it is 9.15 ± 0.5; for TCATAACAACTTTGTGTGCACATAAAACATGTATAT it is 9.81 ± 0.26.

Consider “TATAAGACATGATATATACACACCTTGTTTTAATTT [CACACA_site2266]”, for which the “gcPBM binding intensity (ln)” value was 8.87 ± 0.35. To “TTTTTTTTTTCATTCACACAAAAAAAAAAAATTTAT [CACACA_site5921]” belongs 8.04 ± 0.39; to “AATAAAAATATATCCACACACATATATATATATGTA [CACACA_site576]”, 9.17 ± 0.17. To “ATATGAATATATATATGTACTAATTAGTAGTTTACG [XGTACX_site6273]” belongs 9.04 ± 0.4; to “GAAGATATGTAAAATTGTACATATTATTTTATTTTA [XGTACX_site5302]”, 8.56 ± 0.47; to “AGAAATTTACAAATACGTACACACATATATATATAT [XGTACX_site3141]”, 9.49 ± 0.63. Regarding “CTGATCCACATTTATACACACCTCGGTTTGTAGAGA [CACACA_site4393]”, the “gcPBM binding intensity (ln)” value is 8.93 ± 0.38. On to “AAAATATATAATATTTGTACATATTGATGGCAACAG [XGTACX_site6454]”, for which the “gcPBM binding intensity (ln)” value is 8.81 ± 0.4.

With “TTTTACACTTTTTTTTGTACACACTAAAAAGATTAA [XGTACX_site8407]”, the “gcPBM binding intensity (ln)” value was found to be 8.59 ± 0.52.

As for “AAAGGTTCATAAAAATGTACATAATTATTTACATGT [XGTACX_site2722]”, the “gcPBM binding intensity (ln)” value worked out at 8.72 ± 0.47. With “CAAATCATATATAGCACACAAATTCTTTATTATTAT [CACACA_site2815]”, the “gcPBM binding intensity (ln)” value amounted to 8.9 ± 0.5.

Turning to “CACAAAAATAAACACACACACATATATATTTATTAT [CACACA_site5923]”, the “gcPBM binding intensity (ln)” value stood at 9.68 ± 0.18. The figure for “TAAATTAAAAGACACACACACAAAAAAAAAAAAAAA [CACACA_site7131]” is 9.4 ± 0.44; for “GGAAACTAAAGGAATAAAACTATGGAAATTAATTAA [CACACA_negctrl_site1647]” it is 8.62 ± 0.57. For the sequence “TACTATTTAAAATATGAACACACATTATTTGTTTTA [CACACA_site8870]”, the “gcPBM binding intensity (ln)” value stood at 8.7 ± 0.47. The figure for “AGATGATATAATGGCACACAAATATTTTATTATAAA [CACACA_site3553]” is 8.84 ± 0.52. To “TAAATTTATAAATCACGTACATATTTATTTATATTT [XGTACX_site4532]” belongs 8.62 ± 0.52; to ATAATTTCATAATACGTGCACATAATATATAAAAAA, 8.82 ± 0.42.

For “ATTCAAAATTATAGGTGTACGTATTTTTTTTTTTTT [XGTACX_site7177]”, the “gcPBM binding intensity (ln)” value was found to be 8.7 ± 0.55. With “AAGAAAAAAAAAATTACACACTGCGCAGATACACAA [CACACA_site1289]”, the “gcPBM binding intensity (ln)” value is 9.03 ± 0.38. To “TGGTAATCCACATACACACACACATACACATATATA [CACACA_site2727]” belongs 9.83 ± 0.28; to “TAATATGTATATAAAAGTACAGACGATTATAATTAT [XGTACX_site173]”, 8.9 ± 0.38. To “TTTTGTAGATATGACTGTACATATTTTATACATAAC [XGTACX_site971]” belongs 8.68 ± 0.41; to “AAAAAATAAATAAATACACACAAATATATATATATA [CACACA_site2543]”, 9.45 ± 0.24. To “ATATATATATGTAAGAGTACACAAAAATATGTATGT [XGTACX_site4335]” belongs 9.17 ± 0.41. In the case of “CACATACCTATATACACACACAAAATAATAAAATAA [CACACA_site7150]”, the “gcPBM binding intensity (ln)” value was 9.53 ± 0.33. For the sequence “ACTAATATTTTATAAAGTACAAATTAATAAAATTCA [XGTACX_site5817]”, the “gcPBM binding intensity (ln)” value was 8.43 ± 0.57.

For the sequence “AGAATGGATTAGCTAGCACACACAAAAAAAAAAAAA [CACACA_site8995]”, the “gcPBM binding intensity (ln)” value worked out at 9.04 ± 0.66. Regarding “TATATATATATATTGACACACATGTATTTCAATATT [CACACA_site2832]”, the “gcPBM binding intensity (ln)” value came out at 9.39 ± 0.057. Regarding “AAGACAACATAAATATGTACATATATTTATTATTTT [XGTACX_site1792]”, the “gcPBM binding intensity (ln)” value turned out to be 8.82 ± 0.39. To “TACAAAAAGAATGAAAAATATATAATAAAAATAAAA [XGTACX_negctrl_site159]” belongs 8.54 ± 0.57; to “AAGTATGGAAAGGAATATAAATTAATACTTTCATTG [XGTACX_negctrl_site131]”, 8.55 ± 0.6; to “CTTATATATTGCCCTTCACACACACCCATATATATA [CACACA_site8795]”, 9.55 ± 0.34. To “TTTCAAAGGAAATGGTGTACACAATTTTTCCTTTTT [XGTACX_site2340]” belongs 8.46 ± 0.38; to “TTTTATTATTCTTCTCTCTTATATATATATATATAT [CACACA_negctrl_site646]”, 9.06 ± 0.44; to “ATAACATAGGCAATCACACATATCATTAAGGTGTCA [CACACA_site5233]”, 9.04 ± 0.4. Take “ACTGTGGTATAAAGTTGTACATGTTTTTATATATTT [XGTACX_site5257]”: the “gcPBM binding intensity (ln)” value came to 8.99 ± 0.4. For the sequence “TACTTTTATATGAATACACACAGGAATATATATATG [CACACA_site3568]”, the “gcPBM binding intensity (ln)” value worked out at 8.88 ± 0.37.

As to “TTACTTTAACCTTCTCGTACTTATTTACTTTATTCT [XGTACX_site7801]”, the “gcPBM binding intensity (ln)” value came out at 8.99 ± 0.47.
